Reference: PubChem BioAssay AID1625 (Sanford-Burnham Center for Chemical Genomics, 2009)
The other results are listed elsewhere or left out. Further columns of the screen follow, without active or inactive calls. Most of these compounds were active or inconclusive in the main read-out, so they are no random draw.

Assay: up-regulation of insulin promoter-GFP reporter – imaging, high-content screening, mouse beta cells (AID 1625);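 also: total cells summed across four imaged fields per well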
Settings: MIN6 insulin promoter-GFP reporter, measured here: cytotoxicity, nuclei count, at 5 µM
`CC(=O)Nc1ccc(NC2=C(Cl)C(=O)c3ccccc3C2=O)cc1` showed a cell count of 321 cells. Work on `CC(/C=N/NC(=O)c1ccncc1)=C\c1ccc(C(C)C)cc1` yielded a cell count of 1300 cells. Work on `CCN1CCS/C1=C/C=C/C1=[N+](CC)CCS1` yielded a cell count of 269 cells. `CCOC(=O)c1ccc(CSc2nnc(-c3ccncc3)n2N)cc1` gave a cell count of 1040 cells. For `C=C1C(=O)[C@@]23[C@H](O)C[C@@H]4C(C)(C)CC[C@H](O)[C@@]4(C)[C@@H]2CC[C@@H]1[C@H]3O`, the cell count was 387 cells. Compound `O=C1/C(=N\S(=O)(=O)c2cccs2)C([n+]2cccc(Cc3ccccc3)c2)=C([O-])c2ccccc21` has a cell count of 942 cells. Work on `O=c1c(Cl)c(Cl)cnn1Cc1nnc(-c2ccc(Cl)cc2)o1` yielded a cell count of 366 cells. Compound `CCc1ccc(NC(=O)CSc2nc3n[nH]c(C)c3c(=N)n2-c2cccc(OC)c2)cc1` has a cell count of 463 cells. Work on `Nc1nnc(-c2cc3c(ccc4ccccc43)oc2=O)s1` yielded a cell count of 1520 cells. For `CCc1ccc(/C=C/c2c[nH]c3ccccc23)[n+](CC)c1`, the cell count was 256 cells. Compound `COc1cc(C)nc(N2CCCC(C(=O)Nc3cccc(Cl)c3C)C2)n1` (stereo not drawn) has a cell count of 772 cells. `COc1cc([C@@H]2[C@H]3CNCC=C3C(C#N)=C(N)C2(C#N)C#N)ccc1OC(C)C` showed a cell count of 1320 cells. With `C=CCc1c(C)nc(-c2ccccc2)nc1N/N=C(\C)c1ccc(N)cc1` the cell count was 499 cells. `CCC(=O)OCC(=O)c1c(N)n(Cc2ccccc2)c(=O)n(C)c1=O` showed a cell count of 1420 cells. Compound `O=c1c(-c2ccccc2)c1-c1ccccc1` has a cell count of 475 cells. `C(=C/c1nccc2c1[nH]c1ccccc12)/c1ccc2c(c1)OCO2` showed a cell count of 1230 cells. `COc1c2c(nc3ccccc13)OC(C(C)(O)COC(C)=O)C2` (stereo not drawn) gave a cell count of 789 cells. Work on `CC1CCN(S(=O)(=O)c2ccc3c(c2)c(=O)c(C(=O)N2CCCCC2)cn3C)CC1` yielded a cell count of 1130 cells. With `COc1ccc(-[n+]2c(C)cc(/C=C3\Sc4ccccc4N3C)cc2C)cc1` the cell count was 459 cells. Compound `CN1C(=O)N(C)C2(c3ccccc3)Nn3c(s/c(=C/c4ccccc4)c3=O)=NC12c1ccccc1` (stereo not drawn) has a cell count of 348 cells. For `CC1CCc2cc(F)ccc2N1C(=O)CCC(=O)O` (stereo not drawn), the cell count was 493 cells. In the case of `On1onc2c3cc(-c4ccccc4)nc3ccc21`, the cell count is reported as 488 cells. With `CC(=O)Oc1c(C)cc(Cl)cc1C(=O)Nc1ccc([N+](=O)[O-])cc1Cl` the cell count was 494 cells. For `CC(=O)OC(C(=O)NCc1ccc(F)cc1)c1ccccn1` (stereo not drawn), the cell count was 1480 cells. Compound `O=S(=O)(c1ccc(NC(=S)NCCc2ccccc2)cc1)N1CCOCC1` has a cell count of 449 cells. In the case of `Cc1ccc(NC(=O)CSc2nnc(-c3cnccn3)n2Cc2ccco2)cc1C`, the cell count is reported as 443 cells. Work on `Cc1c(Cl)cccc1N/C(SCC(=O)N1CCCCCC1)=C(/C#N)c1nc2ccccc2s1` yielded a cell count of 396 cells. Work on `CCCCOc1ccc(-c2cc(C(F)(F)F)c(C#N)c(SCC(=O)O)n2)cc1` yielded a cell count of 1370 cells. `COc1ccc2cc3[n+](cc2c1OC)CCc1cc2c(cc1-3)OCO2` gave a cell count of 394 cells. `CCOc1ccc(-n2c(-c3ccc(Br)cc3)c[n+]3c2CCCCC3)cc1` showed a cell count of 317 cells. Work on `CCCCCCc1cc2cc(-c3nnc(-c4ccccc4O)o3)c(=O)oc2cc1O` yielded a cell count of 982 cells. For `Cc1cccc(C)c1NC(=O)C(NC=O)c1ccccc1Cl` (stereo not drawn), the cell count was 319 cells. For `CCCCCn1c2c(c(=N)c3ccccc31)CCC2`, the cell count was 285 cells. In the case of `Cn1cc(/C=C2\SC(=S)N(NC(=O)c3ccccc3Cl)C2=O)c2ccccc21`, the cell count is reported as 1240 cells. Work on `CCN(CC)CCn1c(=N)n(CC(O)c2ccco2)c2ccccc21` (stereo not drawn) yielded a cell count of 456 cells. Work on `N#C/C(=C\c1ccc(N2CCOCC2)o1)C(=O)NCCc1ccccc1` yielded a cell count of 1530 cells. Compound `CCc1ccc(-n2cc(-c3ccc(F)cc3)[n+]3c2SCCC3)cc1` has a cell count of 460 cells. Work on `CCN(CC)c1ccc(/C=C(\C#N)C(=O)c2ccc(Br)cc2)cc1` yielded a cell count of 1240 cells. In the case of `N#Cc1ccc(-c2ccccc2)nc1SCC(=O)c1cccc(Cl)c1`, the cell count is reported as 1670 cells. In the case of `Nc1c(C(=O)C2CC2)sc2nc(-c3cccs3)cc(C(F)(F)F)c12`, the cell count is reported as 913 cells. With `COc1cccc(NC(=O)Cn2c(-c3cncs3)nc3ccccc32)c1` the cell count was 942 cells. Compound `CC(=O)C(=Cc1cn(-c2ccccc2)nc1-c1ccccc1)C(C)=O` has a cell count of 1320 cells. For `COc1cccc2c1C(CO)N1C(C#N)C3CC(C(=O)O)C(C1C2)N3C` (stereo not drawn), the cell count was 271 cells. Compound `CCOC(=O)c1sc2nc(CC(=O)OC)nc(NCC(=O)OC)c2c1C` has a cell count of 414 cells. `CN(C)CCCNS(=O)(=O)c1ccc(N2CCC(c3ccc(Cl)cc3)=N2)cc1` gave a cell count of 349 cells. With `O=C(Nc1cnn(C23CC4CC(CC(C4)C2)C3)c1)c1cnn2c(C(F)(F)F)cc(-c3ccco3)nc12` the cell count was 371 cells. In the case of `Cc1ccc(-n2c(Cl)c(Cl)nc(Cl)c2=O)cc1`, the cell count is reported as 187 cells. Compound `CC(C)(C)c1ccc(OCC(=O)Nc2ccc3c4c(cccc24)C(=O)NC3=O)cc1` has a cell count of 1420 cells. Compound `CSc1snnc1-c1ccccc1` has a cell count of 442 cells. With `CCN(CC)c1ccc(Nc2nc(N3CCOCC3)c3ccccc3n2)cc1` the cell count was 217 cells. In the case of `Cc1cc(/C=C2/C(=O)N(C)C(=S)N2C)ccc1N1CCCC1`, the cell count is reported as 1490 cells. `O=C1S/C(=C/c2ccc(N3CCOCC3)o2)C(=O)N1Cc1c(F)cccc1Cl` showed a cell count of 863 cells. `CCCCCCCCC[n+]1cccc2c3ccccc3ccc21` showed a cell count of 339 cells. With `Cc1ccc(Cn2c(=N)n(CC(O)COc3ccccc3)c3ccccc32)cc1` (stereo not drawn) the cell count was 421 cells. Work on `c1ccc(-c2cnn3c(-c4ccccc4)c(-c4ccccc4)nc3n2)cc1` yielded a cell count of 1380 cells. Work on `Cn1c[n+](C)cc1-c1ccc(/C(N)=N/O)cc1` yielded a cell count of 489 cells. Work on `Cc1ccc(-c2c[n+](Cc3ccc(Cl)c(Cl)c3)c3n2CCC3)cc1` yielded a cell count of 334 cells. Compound `FC(F)(F)c1nc(-c2cccs2)ncc1-c1nnnn1-c1ccc(Cl)cc1` has a cell count of 435 cells. With `CCN(CC)CCN1C(=O)c2oc3ccccc3c(=O)c2C1c1ccccc1` (stereo not drawn) the cell count was 957 cells. Compound `CCOC(=O)N1CCC(NC(=O)c2cc(C(=O)Nc3ccc(OC)c(OC)c3)ccc2CO)CC1` has a cell count of 1180 cells. For `Cc1cc(Cl)c(S(=O)(=O)N2CCN(c3ccc(F)cc3)CC2)cc1OCC(=O)NC1CCCCC1`, the cell count was 471 cells. Compound `Cc1nc2ccc(NC(=O)c3cc(S(=O)(=O)N(C)c4ccccc4)ccc3Cl)cc2s1` has a cell count of 435 cells. In the case of `O=[N+]([O-])c1ccc(/C=C/C2=NN(c3ccccc3)C(c3ccco3)C2)o1` (stereo not drawn), the cell count is reported as 1180 cells. Compound `Cc1ccc(S(=O)(=O)NCc2ccncc2)cc1` has a cell count of 439 cells. For `c1ccc2c(c1)OCC(CNc1ncnc3sccc13)O2` (stereo not drawn), the cell count was 413 cells. `COc1ccc(CCn2c(NCc3ccco3)nc3c2c(=O)[nH]c(=O)n3C)cc1` showed a cell count of 472 cells. Work on `COc1ccc(C(=O)N(CN2CCCC2=O)c2ccc(C)cc2)cc1` yielded a cell count of 1360 cells. In the case of `CCCN1CCc2c(sc(NC(=S)NC(=O)c3ccccc3)c2C#N)C1`, the cell count is reported as 1180 cells. For `COc1cc(OC)cc(C(=O)Nc2cccc(C(C)=O)c2)c1`, the cell count was 1380 cells. With `CCn1c(Cn2nnc(-c3ccccc3)n2)nnc1SCC(=O)Nc1ccc(C(C)=O)cc1` the cell count was 1370 cells. `Cc1nc(Nc2ccc(F)cc2)[nH]c(=O)c1CCC(C)C` showed a cell count of 494 cells. `CCOc1ccc(N(CC(=O)Nc2ccc(C)c(C)c2)S(=O)(=O)c2c(C)noc2C)cc1` gave a cell count of 374 cells. `C[C@@]1([C@@H](NC(=O)c2cccs2)c2ccc(-c3ccccc3)cc2)C[C@H]1C1CCCCC1` gave a cell count of 384 cells. `Cc1ccc(NC(=O)CCl)c(C)c1` showed a cell count of 1040 cells. With `Cc1c(OCc2ccccc2)cccc1OCc1ccccc1` the cell count was 398 cells. With `O=C1CN(C(=O)COc2ncnc3ccccc23)c2ccccc2N1` the cell count was 830 cells. Compound `Nc1nonc1C(=O)NCCNCc1cc(Br)ccc1OCc1ccccc1F` has a cell count of 467 cells. Compound `NC(=O)c1cc2c3ccccc3ccn2c1-c1ccccc1` has a cell count of 436 cells. `c1ccc(-c2cn(-c3ccccc3)c3[n+]2CCCS3)cc1` gave a cell count of 450 cells. Compound `CC(=O)n1cc(N(C(=O)CCl)c2ccc([N+](=O)[O-])cc2)c2ccccc21` has a cell count of 497 cells. Work on `Cc1ccc(/C(C#N)=C\c2ccc(N3CCOCC3)o2)cc1` yielded a cell count of 1650 cells. In the case of `CCC(C(=O)OCC(=O)Nc1cccc(S(=O)(=O)NC2=NCCCCC2)c1)c1ccccc1` (stereo not drawn), the cell count is reported as 1200 cells. Work on `CCCC1C2CN(C(C)C)CC=C2C(C#N)=C(N)C1(C#N)C#N` (stereo not drawn) yielded a cell count of 1370 cells. In the case of `CC1=CC(=O)c2c(O)ccc(O)c2C1=O`, the cell count is reported as 302 cells. Work on `CCCCCCCCCC[n+]1cccc2c3ccccc3ccc21` yielded a cell count of 441 cells. In the case of `CCCCCCCC[n+]1cccc2c3ccccc3ccc21`, the cell count is reported as 391 cells. `COc1cc(N2CCCC2)c(OC)cc1/C=c1/sc2nc3ccccc3n2c1=O` gave a cell count of 1380 cells. `CCCCN1C(=O)/C(=C/C=C2\N(C)c3ccccc3C2(C)C)SC1=S` showed a cell count of 1120 cells.
